Measured values as given in ChEMBL document CHEMBL4888484, “Replenishing the malaria drug discovery pipeline: Screening and hit evaluation of the MMV Hit Generation Library 1 (HGL1) against asexual blood stage Plasmodium falciparum ,using a nano luciferase reporter read-out” (2022).
Screen size: about 150,000 compounds; about 540 (0.36%) showed an effect of 50% or more. The list shows a part of the results.

Tested on: Plasmodium falciparum
Assay: Primary screen in NF54 nanoGlo assay, in single point, at 2uM, 72h; a lower Z score goes with more inhibition
Format: functional, Erythrocyte
Conditions: timepoint 72 hour

| Structure (SMILES) | % Inhibition [%] | Z score |
| --- | --- | --- |
| CCCn1cc(-c2cc(-c3cnc(N(C)C)nc3)c(C#N)c(N)n2)c(C)n1 | 7 | -1 |
| CCC[C@@]1(C(F)(F)F)CCCN1C(=O)c1cnc(C(C)(C)C)nc1 | -10 | 1.3 |
| CCS(=O)(=O)c1cc(F)ccc1NC(=O)N[C@@H]1C=CCCC1 | -9 | 1.31 |
| CC1CN(C(=O)NC(C)c2csc(C3CC3)n2)CCO1 (stereo not given) | -3 | 0.36 |
| O=C(CCC1CCN(Cc2nc3c(s2)CCCC3)CC1)Nc1ccccc1 | -13 | 1.9 |
| COc1cccc(-c2nnc3c4ccccc4nc(N4CCC(Cc5ccccc5)CC4)n23)c1 | -3 | 0.49 |
| C[C@H](Nc1cnn(C)c1)c1nc2ccccc2o1 | 10 | -0.94 |
| CN1CCN2CCN(C(=O)c3ccc4c(c3)ncn4CCO)C[C@H]2C1=O | -14 | 1.32 |
| CC(C)CCn1c(CN2CCC[C@@](O)(CO)CC2)nc2ccccc21 | -12 | 1.58 |
| O=C(CC1CC2CCC1C2)N1CCCC(CO)C1 (stereo not given) | -9 | 1.32 |
| Cc1ncsc1C(=O)NCC(F)(F)C(F)F | 2 | -0.24 |
| CCn1ncc2c1NC(=O)C[C@@H]2c1[nH]cnc1C | -10 | 1.22 |
| CN(C)S(=O)(=O)c1ccc(-c2nc(-c3cnn(C)c3)cs2)cc1 | -1 | 0.14 |
| CNc1nc([C@H]2CCOC2)cc(N2CCC(N3CCc4ccccc4C3)CC2)n1 | 10 | -1.32 |
| O=C(N[C@@H]1C2C=CC(C2)[C@H]1C(=O)N1CCCC1)OCc1ccccc1 (stereo not given in full) | -17 | 1.95 |
| COc1ccncc1NC(=O)c1ncsc1C(F)(F)F | 3 | -0.56 |
| O=C1N(CC2CC2)CCC[C@@]12CCN(c1nc(CO)cs1)C2 | -2 | 0.29 |
| Cc1ccc(C)n1-c1nc2ccc(C(=O)NC3CC3)cc2s1 | 3 | -0.42 |
| CCN(Cc1ccoc1)C(=O)OC(C)(C)C | -1 | 0.09 |
| C=CCN(Cc1ccccc1OCC)C(=O)c1cccc(=O)[nH]1 | 3 | -0.5 |
| O=C(C[C@H]1C(=O)NCCN1Cc1cccc2ccccc12)NCC1CC1 | -8 | 1.5 |
| COc1ccc(CCNC(=O)COc2ccc(S(=O)(=O)N3CCCCC3)cc2)cc1OC | -6 | 0.87 |

| Structure (SMILES) | % Inhibition [%] | Z score |
| --- | --- | --- |
| Cc1cc(-c2cccs2)nn1CCNC(=O)N1CCNC1=O | 16 | -2.1 |
| Cc1ccn(CCn2nc(C3CCNCC3)n(Cc3ccccc3)c2=O)n1 | -7 | 1.06 |
| COc1ccccc1C(N)=NOCC(=O)N1CCO[C@@H](C)C1 | -10 | 1.36 |
| Cc1nc(N2CCC(C(=O)N3CCCC[C@@H]3C)CC2)nc2cc(S(C)(=O)=O)ccc12 | -24 | 4.03 |
| Fc1ccccc1-c1noc(N2CCc3ccccc32)n1 | -15 | 1.3 |
| Cc1ccc(NC(=O)CN2C(=O)CCn3nc(-c4cccn4C)cc32)cc1 | -7 | 1.34 |
| O=C(NCCOc1ccccc1F)C(=O)N1CCCC1 | 7 | -0.91 |
| CC1CC(c2ccccc2)CN1C(=O)CC1(CS(C)(=O)=O)CC1 (stereo not given) | -1 | 0.1 |
| CC(c1nnnn1C1CCCCC1)N1CCCC(O)(C(F)(F)F)C1 (stereo not given) | -5 | 0.89 |
| Cc1cccc(N2C(=O)c3cccnc3[C@@H]2CC(=O)NCc2ccc(Cl)cc2)c1 | -12 | 2.33 |
| Cc1ccc(-n2cc(NC(=O)N3CC[C@@]34CCOC4)cn2)c(C)c1 | -5 | 0.67 |
| Cc1c(Cl)cccc1-c1ccc(C(=O)Nc2ccc(N3CCCCC3)cc2)o1 | 2 | -0.34 |
| C[C@]1(C#N)CCCN(Cc2cccc3nonc23)C1 | -4 | 0.64 |
| COCCNC(=O)CN1CCN(/C(=N/c2ccc(C(=O)O)cc2)NCCc2ccccc2)CC1 | -2 | 0.22 |
| CC1CCN(C(=O)C2CCC(=O)N(C3CC3)C2c2ccnn2C)C1C (stereo not given) | -10 | 1.14 |
| CC(C)n1nc2c(cc1=O)CN(c1ccc(C#N)cn1)CC2 | 27 | -3.1 |
| Cn1c(C(=O)NC(C)(C)C)cc2c1CCN(Cc1ccc(F)cc1)C2 | 5 | -0.62 |
| O=C(Nc1ccc(O)cc1)[C@H](Cc1ccccc1)n1cnnn1 | 3 | -0.43 |
| O=C1CCC(CCNCc2cc3c(cc2Cl)OCO3)N1CC(c1ccncc1)N1CCOCC1 (stereo not given) | -7 | 1.02 |
| O=C(N[C@@H](c1ccsc1)c1cccs1)c1cc(C2CC2)on1 | -15 | 2.61 |
| C[C@H](NS(C)(=O)=O)c1ccc(F)cc1F | 27 | -3.13 |
| Cc1nnc([C@H](C)Nc2ccc(-c3ccccc3)cc2)o1 | -14 | 1.84 |

| Structure (SMILES) | % Inhibition [%] | Z score |
| --- | --- | --- |
| Cc1cc(C)c2c(C(=O)N3CCCC3)cc(-c3cnc(C(C)C)nc3)nc2c1 | -17 | 2.29 |
| COc1ccc(CCC(C)NC(=O)C2CC(c3cccnc3)=NO2)cc1 (stereo not given) | -7 | 1.49 |
| Cc1ccc(N(CC2CC2)C(=O)[C@H]2OCC[C@H]2Cn2cccn2)cc1F | -2 | 0.34 |
| CCOc1ccnc(NCC2(N(C)C)CCCC2)n1 | 1 | -0.11 |
| O=C(c1cccc2ncnn12)N1CCC[C@H](C2CCOCC2)C1 | 2 | -0.17 |
| Cc1nn(C)c(C)c1C(=O)N1CCC(c2nnc(Cn3ccnc3C)n2C)CC1 | -10 | 1.7 |
| CS(=O)(=O)C1CCCC(NCc2cccn2C2CC2)C1 (stereo not given) | -9 | 1.42 |
| COc1cccc(C(=O)N[C@H]2CCO[C@H](c3ccccn3)C2)c1 | 3 | -0.38 |
| Cc1cccc(OC[C@@H](O)CNCCc2nnc3ccccn23)c1 | -2 | 0.38 |
| NC(=O)NC(=O)CCN1CC(c2ccccc2)OC(c2ccc(F)cc2)C1 (stereo not given) | -12 | 1.76 |
| CCC1=NO[C@@H](CNC(=O)c2ccc(-n3cnnc3)nc2)C1 | -7 | 0.94 |
| O=C1CCN(Cc2ccn(-c3ccc(Cl)cc3)n2)CCN1 | -11 | 1.09 |
| C[C@H]1CN(C(=O)C2(C(=O)NC3CC3)CCC2)CCN1C1CCCC1 | -7 | 0.73 |
| Cc1cccc(O)c1NC(=O)c1cccn2c(-c3ccccc3F)nnc12 | 0 | 0.02 |
| O=S(=O)(Nc1nocc1C1CC1)c1ccc(Cl)cc1 | -6 | 1 |
| CN(Cc1n[nH]c(=O)n1CC1CCCCC1)S(C)(=O)=O | -13 | 1.86 |
| CCn1nc2c(c(C(F)F)cc(=O)n2CCC(=O)N(C)Cc2ccnn2C)c1C | 30 | -3.36 |
| Cc1cc(C)n(C2CN(C(=O)CCn3ccnc3C)C2)n1 | -7 | 1.22 |
| CCC(C)Oc1cc(CNC(=O)N2CC(C)CC(C(=O)O)C2)ccn1 (stereo not given) | 5 | -0.55 |
| CC(C)c1nc(CNC(=O)c2ccncc2F)no1 | -14 | 1.8 |
| COC(=O)N1CCC(CNC(=O)c2ccno2)CC1 | -5 | 0.54 |
| Cc1cc(N2C(=O)C(C)(C)CS2(=O)=O)ccc1S(=O)(=O)Nc1ncccn1 | -1 | 0.08 |

| Structure (SMILES) | % Inhibition [%] | Z score |
| --- | --- | --- |
| CCN(CC(=O)Nc1cc(C)ccc1C)C[C@H](O)c1cccc(O)c1 | -6 | 0.88 |
| O=C(c1ccc(O)nc1)N1C2CCC1CC(Cc1ccccc1)C2 (stereo not given) | -21 | 2.14 |
| Cc1cc(C(C)NC[C@@H](C)O)ccc1Br (stereo not given in full) | -2 | 0.31 |
| CCn1cnnc1CN(C)C(=O)Cc1c(C)n[nH]c1C | -15 | 1.89 |
| Cc1cc2c(cc(C(=O)NCCCc3ccccc3)n2Cc2ccc(Cl)cc2)o1 | -6 | 1.16 |
| COc1ccc(Cl)cc1N1CC[C@H](NC(=O)N2CCC(CC(N)=O)CC2)C1 | 3 | -0.66 |
| O=C(Cc1cccc(C(F)(F)F)n1)Nc1cncc2c1CCCC2 | -17 | 2.26 |
| Cc1ccc2c(c1)CCCN2C(=O)CN1CCn2nc([C@H](C)O)cc2C1 | -14 | 1.61 |
| C=CCN(CC#Cc1ccccc1)Cc1ccccn1 | -13 | 1.9 |
| O=C(NCC1CC2C=CC1C2)c1ccc(Cl)cc1 (stereo not given) | 1 | -0.09 |
| CC1CCc2c(F)cccc2C1NC(=O)c1nc(=O)[nH][nH]1 (stereo not given) | 5 | -0.84 |
| Cc1cc(C)cc(CN2CCN(C(=O)Cn3nc(C)cc3C)CC2=O)c1 | -2 | 0.28 |
| O=C(NC1CCN(Cc2ccccc2)CC1)c1ccc2ncnc(N3CCCCC3)c2c1 | 14 | -1.79 |
| CCn1c(=O)c2sccc2n(CC(=O)Nc2ccc(OC)cc2)c1=O | 24 | -2.7 |
| CCCc1nc(N2CCN(Cc3ccccn3)CC2)no1 | -19 | 2.44 |
| COc1ccc2cc1OCCn1cc(nn1)CO[C@H]1CN(C(=O)c3cnc(N4CCCCC4)nc3C)C[C@@H]1NC2=O | -16 | 2.04 |
| Cc1cccc2c1C(=O)N[C@@H](c1ccc(N3CCNC(=O)C3)cc1)N2 | 2 | -0.33 |
| Cc1cc(C)cc(-n2nc(C(=O)NCc3ccc4c(c3)OCO4)c(=O)n(Cc3ccccc3)c2=O)c1 | -2 | 0.38 |
| CCS(=O)(=O)c1cc(Cl)cc(CNC(=O)NC2(C)CCC2)c1 | -2 | 0.37 |
